Results published in PMC12040169 (PLOS Biology, 2025).
The list shows a part of the results.

test system: T1, C. trachomatis L2/434/Bu expressing GFP (CTL2-GFP); parameters: species or system HeLa; C. trachomatis total inclusion area by high-content imaging, normalised to DMSO; conditions: total inclusion area; 28.5 h, 10 µM; inhibitor
T1 construct: L2/434/Bu GFP intracellular growth in HeLa cells
In short: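 Host cell viability was gauged from Hoechst-stained nuclei counts, while chlamydial growth was taken from total inclusion area and inclusion number per well. Cells were fixed and imaged by high-content microscopy once bulk GFP and resorufin fluorescence had been measured.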

| Compound | % of control remaining |
| --- | --- |
| CC(=O)c1ccc(-c2ccc(C(=O)N(C)CCN(C)C)c(N(C)C)n2)s1 [CBK106071] | 107.086 |
| CC(C)c1ccc(/C=C/C(=O)NCc2ccccc2)cc1 [CBK149635] | 104.201 |
| OCCCN1CCC(Oc2cncc(OCCN3CCOCC3)n2)C1 (stereo not drawn) [CBK084494] | 91.3306 |
| COc1ccc2c(c1)C1(CC(=O)N(CC(=O)N(C)C)C1=O)C(=O)N2CC(=O)c1ccccc1 (stereo not drawn) [CBK075913] | 94.1725 |
| CCOC(=O)C(Cc1ccccc1)NC(=O)c1ccc(C)nc1 (stereo not drawn) [CBK305952] | 69.5981 |
| COc1cc2c(cc1NC(=O)C/C(C)=N/NC(=O)c1ccccc1F)oc1ccccc12 [CBK262437] | 102.932 |
| CS(=O)(=O)N1C[C@@H]2CCCCN(Cc3cccc(F)c3F)[C@@H]2C1 [CBK285513] | 84.2671 |
| CC(=O)Nc1ccc(-c2ccc(C(=O)NCc3ccc(OC(F)(F)F)cc3)cn2)cc1 [CBK158830] | 103.932 |
| CC(=O)Nc1ccc(F)c(NC(=O)NCC2CCOC2)c1 (stereo not drawn) [CBK304388] | 96.6723 |
| O=C(Nc1cccc2cccnc12)c1ccc([N+](=O)[O-])o1 [CBK268007] | 54.9135 |
| O=C(O)c1ccc(S(=O)(=O)N2CCOCC2)cc1 [CBK287201] | 106.969 |
| S=C(NCCCN1CCOCC1)Nc1ccccc1Cl [CBK264599] | 98.0065 |
| Cn1cc(CN2CCN(CC3(c4ccccc4)CC3)CC2)cn1 [CBK282794] | 72.4068 |
| Cc1ccc(S(=O)(=O)NC(C)C(=O)Nc2cc(C(F)(F)F)ccc2Cl)cc1 (stereo not drawn) [CBK266546] | 93.5506 |
| Cn1nccc1CN1CCCC(COc2ccc(F)cc2)C1 (stereo not drawn) [CBK281899] | 95.3697 |
| O=[N+]([O-])c1ccccc1S(=O)(=O)Nc1cc(C(F)(F)F)ccc1Cl [CBK015721] | 85.3559 |
| COCCN1CC(CNC(=O)c2cccc(F)c2O)CC1=O (stereo not drawn) [CBK304386] | 62.1825 |
| O=C1CN(C(=O)NCCc2c[nH]c3ccccc23)CCN1 [CBK155866] | 83.891 |
| O=C(c1ccc2ccccc2c1)C12CN3CN(CN(C3)C1)C2 [CBK009031] | 108.126 |
| Cn1cc(C(=O)NC(Cc2ccsc2)c2cccnc2)cn1 (stereo not drawn) [CBK285118] | 93.999 |
| Cc1cc(C)cc(NS(=O)(=O)c2ccc(NC(=O)C(C)Oc3ccc(Cl)cc3Cl)cc2)c1 (stereo not drawn) [CBK264894] | 78.4984 |

| Compound | % of control remaining |
| --- | --- |
| CN1CCN(CCCOc2ccc(OCc3ccccc3)cc2)CC1 [CBK265077] | 100.877 |
| CN1CCN(C(C(=O)O)c2c[nH]c3cc(OCc4ccccc4)ccc23)CC1 (stereo not drawn) [CBK286654] | 83.231 |
| Nc1nc(-c2ccc(Cl)cc2)c(CC(=O)O)s1 [CBK287188] | 117.53 |
| COc1nc2ccccc2nc1CCc1nc(-c2ccccc2)no1 [CBK269840] | 106.663 |
| O=C(Cc1csc(-c2ccc(Cl)cc2)n1)Nc1cccnc1 [CBK107300] | 108.076 |
| CC(C)[C@@H](CO)Nc1nc(-c2cccc(Br)c2)cnc1N [CBK063758] | 66.3082 |
| CC(C)Nc1ccc(C(=O)N2CCC(N3CCOCC3)CC2)cn1 [CBK304353] | 37.5274 |
| CCOc1ccc(-c2ccnc(N3CCCC(C)(O)C3)n2)cc1C(=O)O (stereo not drawn) [CBK307652] | 55.3549 |
| Clc1ccc(Cl)c(-c2ccc(CNCCCN3CCOCC3)o2)c1 [CBK278190C] | 104.161 |
| CC(NC(=O)C1C2CCC(CC2)C1C(=O)O)c1ccncc1 (stereo not drawn) [CBK287061] | 106.029 |
| Cc1ccc(C2CCCN2C(=O)c2cccn(CC(=O)Nc3ccc(F)cc3)c2=O)cc1C (stereo not drawn) [CBK286528] | 111.697 |
| COc1ccc(C2Oc3cccnc3N(CCCN(C)C)C2=O)cc1 (stereo not drawn) [CBK007694] | 69.8596 |
| NNC(=O)C(NC(=O)c1ccccc1)c1n[nH]c(=O)c2ccccc12 (stereo not drawn) [CBK261144] | 87.3265 |
| O=C(O)COc1ccc(Br)cc1/C=N/Nc1ccccn1 [CBK262369] | 87.3666 |
| CCn1c2cc(C)oc2c2cnn(CC(=O)N3CCCC3)c(=O)c21 [CBK284215] | 72.2319 |
| Cc1ccc(C(=O)Nc2cccc(CCc3ccncc3)c2)c(=O)n1C [CBK285556] | 69.8606 |
| COc1ccc([C@@]23CC[C@@H](NC(=O)Nc4cccc5nsnc45)C[C@@H]2N(C)CC3)cc1OC [CBK038874T] | 79.7662 |
| Nc1ncc(-c2cncnc2)nc1-c1ccc(CCC(=O)O)cc1 [CBK064120] | 138.101 |
| NC(=O)c1c(NC(=S)NC(NC(=O)c2ccco2)C(Cl)(Cl)Cl)sc2c1CCCC2 (stereo not drawn) [CBK261055] | 81.0743 |
| Cc1ccc2nc(NC(=O)C(C)(C)C)nc(O)c2c1 [CBK021975] | 60.7748 |
| Cn1cncc1CN1C[C@@H]2CCCN2C[C@@H]1Cc1ccccc1 [CBK283027] | 96.8426 |

| Compound | % of control remaining |
| --- | --- |
| CC(=O)N1CCOc2ccccc21 [CBK050388] | 65.8974 |
| COc1ccc(C2CCN(Cc3ccncc3)CC2)cc1 [CBK283563] | 92.8515 |
| C[C@@H](Nc1nccnc1-c1ccc(C(=O)N2CCOCC2)cc1)c1ccccc1 [CBK037058] | 68.52 |
| OC12CCCCC1CN(Cc1nc3ccccc3[nH]1)CC2 (stereo not drawn) [CBK282995] | 93.8987 |
| O=C(c1ccccc1)c1ccc2n1CCC2C(=O)Nc1ccccc1F (stereo not drawn) [CBK300530] | 79.8578 |
| COc1ccc(C(=O)Nc2nc3c(C)c(C)ccc3s2)cc1 [CBK291210] | 84.3168 |
| O=[N+]([O-])c1ccccc1S(=O)(=O)NCCSCc1ccc(Cl)c(Cl)c1 [CBK058810] | 88.7239 |
| Cc1nc2c(OCC3CCCCC3)cccn2c1N(C)CC1CC1 [CBK147279] | 47.9232 |
| COc1cc(-c2cc(-c3ccccc3)nc(SCC(=O)O)c2C#N)cc(OC)c1OC [CBK131867] | 76.8948 |
| Cc1ccnc(NC(=O)c2ccccc2)c1 [CBK004031] | 18.1772 |
| O=C(c1ccc(-c2nccnc2NCc2cccs2)cc1)N1CCOCC1 [CBK037059] | 86.2643 |
| COc1ccc(-c2nnc(SCC(=O)NC(=O)c3ccccc3)n2CC(C)C)cc1 [CBK297527] | 66.0193 |
| CS(=O)(=O)c1ccc(Cn2cc(CN3CCC(Sc4ccccn4)CC3)nn2)cc1 [CBK149475] | 91.121 |
| O=S(=O)(Cc1ccccc1)NCc1ccccn1 [CBK262241] | 83.5391 |
| NS(=O)(=O)c1ccc(NC(=S)Nc2nn(Cc3ccc(Cl)c(Cl)c3)cc2Br)cc1 [CBK267082] | 77.5471 |
| CC(C)(C)OC(=O)N1CCC(Oc2nccc3c2ccn3Cc2ccc(S(C)(=O)=O)cc2)CC1 [CBK132881] | 32.1208 |
| O=[N+]([O-])c1ccc(S(=O)(=O)Nc2nnc(Cc3ccc(Cl)cc3)s2)cc1 [CBK200046] | 90.5984 |
| Cc1ncsc1CCOc1nc2ccccc2nc1NC(C)C [CBK115736] | 85.6133 |
| Cc1cc(C)cc(OCC(=O)NNC(=O)CN2C(=O)c3ccccc3C2=O)c1 [CBK262394] | 116.555 |
| O=C(O)CCN1C(=O)c2ccc(NC(=O)Cc3cccs3)cc2C1=O [CBK268240] | 100.124 |
| Cc1ccc(-c2csc3c(=O)[nH]c(N4CCCC(C(=O)NCC(N)=O)C4)nc23)cc1 (stereo not drawn) [CBK215542] | 112.831 |

| Compound | % of control remaining |
| --- | --- |
| Cc1ccc2c(c1)C1(CCN(CC3CC3)CC1)NC(=O)C2 [CBK040217] | 70.9438 |
| O=C(O)CSCc1ccc(C(=O)O)o1 [CBK263267] | 107.288 |
| CN1CCC(N(C)C(=O)NCCCN2CCCC2=O)C1 (stereo not drawn) [CBK156021] | 96.5827 |
| O=C(NCc1cccnc1)c1ccccc1-n1cccc1 [CBK149602] | 81.3625 |
| O=C(CCCOc1ccccc1)NCc1ccc(OC2CCNCC2)cc1 [CBK028427T] | 100.358 |
| CCC1CCCCN1C(=O)c1cc2cc(Cl)ccc2[nH]1 (stereo not drawn) [CBK074329] | 114.77 |
| Cc1cccc(CN(CC(=O)Nc2ccc3c(c2)OCCO3)S(=O)(=O)c2ccc(Cl)cc2)c1 [CBK264910] | 88.607 |
| O=C1COc2ccccc2C/C=C/CC2(CCNCC2)C(=O)NCCN1 [CBK291996] | 91.6597 |
| O=C1COc2ccccc2CCCC[C@@H]2CN(C(=O)CCN3CCCC3=O)CC[C@H]2N1 [CBK292044] | 90.3079 |
| CN1CCC(N(C)C(=O)Nc2ccc3[nH]ccc3c2)C1 (stereo not drawn) [CBK156006] | 79.6682 |
| O=C(NCc1cc(Br)ccc1F)C1CC(=O)N(Cc2ccccn2)C1 (stereo not drawn) [CBK305242] | 76.1405 |
| COC(=O)c1ccc(NC(=O)Cn2nnc(-c3ccc(CN4CCOCC4)cc3)n2)cc1 [CBK134589] | 87.463 |
| O=C(O)CCc1nn2c3ccccc3n(CCN3CCCCC3)c2nc1=O [CBK267519] | 88.3783 |
| Cc1ccc(S(=O)(=O)N2CCC(OC(N)=O)CC2)cc1 [CBK003369] | 84.5111 |
| NS(=O)(=O)c1ccc(CNS(=O)(=O)Cc2ccccc2)cc1 [CBK228048] | 90.5274 |
| Cc1onc(-c2ccccc2)c1CNC(=O)CC1CCCCC1 [CBK144078] | 75.8449 |
| C=CCOc1nc2c(=O)[nH]c(/N=C/N(C)C)nc2n1C1CC(O)C(CO)O1 (stereo not drawn) [CBK201299] | 96.8607 |
| Cc1cc(C)nc(N2CCC(CC(=O)NCC(C)N3CCCCCC3)CC2)n1 (stereo not drawn) [CBK286029] | 77.2891 |
